Test results published in publication PMC4336329 (PLoS ONE, 2015).
About 14,000 (4.5%) of roughly 310,000 compounds showed an effect of 50% or more. The effect is printed as a negative number. This is one part of the list.

Target: human ether-à-go-go-related gene (hERG) potassium channel (human, UniProt Q12809)
Assay: primary screen, population patch clamp on CHO cells stably expressing hERG
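Further: peak tail current of the secondary pulse compared with the same well before compound.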

Sequence of human ether-à-go-go-related gene (hERG) potassium channel (Q12809 whole entry, looked up): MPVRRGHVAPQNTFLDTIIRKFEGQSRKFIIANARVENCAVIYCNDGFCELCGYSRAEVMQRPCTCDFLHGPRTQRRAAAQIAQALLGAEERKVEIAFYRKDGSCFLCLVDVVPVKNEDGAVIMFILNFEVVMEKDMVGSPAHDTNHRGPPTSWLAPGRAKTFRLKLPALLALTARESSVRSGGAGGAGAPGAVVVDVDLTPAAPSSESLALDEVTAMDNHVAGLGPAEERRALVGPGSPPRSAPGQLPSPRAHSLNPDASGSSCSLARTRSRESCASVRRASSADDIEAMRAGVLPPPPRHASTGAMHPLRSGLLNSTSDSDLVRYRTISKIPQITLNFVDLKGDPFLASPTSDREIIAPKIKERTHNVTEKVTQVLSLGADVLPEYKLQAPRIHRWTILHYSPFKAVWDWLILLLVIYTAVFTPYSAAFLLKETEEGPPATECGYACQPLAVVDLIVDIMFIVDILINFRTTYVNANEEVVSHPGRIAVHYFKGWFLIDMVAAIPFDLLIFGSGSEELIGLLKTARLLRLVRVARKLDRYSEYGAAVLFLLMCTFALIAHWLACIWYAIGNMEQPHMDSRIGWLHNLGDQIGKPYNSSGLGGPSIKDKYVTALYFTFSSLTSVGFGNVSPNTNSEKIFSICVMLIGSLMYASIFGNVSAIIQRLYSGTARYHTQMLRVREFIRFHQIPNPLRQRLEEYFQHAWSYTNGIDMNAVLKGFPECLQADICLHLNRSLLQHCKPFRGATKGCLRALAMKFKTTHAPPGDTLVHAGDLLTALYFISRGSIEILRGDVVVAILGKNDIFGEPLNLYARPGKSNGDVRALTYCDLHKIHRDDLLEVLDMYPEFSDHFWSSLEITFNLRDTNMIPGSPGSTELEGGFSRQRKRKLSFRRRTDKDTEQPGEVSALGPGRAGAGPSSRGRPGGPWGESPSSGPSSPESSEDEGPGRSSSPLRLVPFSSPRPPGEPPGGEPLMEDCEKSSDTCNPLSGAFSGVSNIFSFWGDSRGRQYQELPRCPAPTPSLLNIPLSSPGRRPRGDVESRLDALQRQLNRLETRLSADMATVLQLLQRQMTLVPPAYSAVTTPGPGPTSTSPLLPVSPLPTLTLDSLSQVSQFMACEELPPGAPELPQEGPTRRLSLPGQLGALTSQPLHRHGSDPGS

SMILES	hERG current change (%, negative = inhibition) at 10uM [%]
CCCCN(C)C(=O)c1nc2ccccn2c1CN1CCC[C@H]1C(=O)OC	18.6
CCOc1ccc(CCNC(=O)C2CCC(=O)N2C2CCCCC2)cc1OCC (stereo not shown)	-2.41
CCC(C)NC(=O)CN1C(=O)COc2ccc(S(=O)(=O)N3CCOCC3)cc21 (stereo not shown)	25.8
CCOc1ccc(CCNC(=O)CS(=O)Cc2nc(-c3ccc(C)cc3)oc2C)cc1 (stereo not shown)	3.18
COc1ccccc1NC(=S)NNC(=O)c1nn(C)cc1Cl	9.4
CCOC(=O)c1[nH]c2cc(OC)c(OC)cc2c1NC(=O)CN(C)C1CCCCC1	-10.5
O=C(NC1CC1)c1cc(F)c(F)cc1Cl	5.79
CC(C(=O)NCc1ccco1)n1cc([N+](=O)[O-])cn1 (stereo not shown)	13.4
O=C(NCN1C(=O)C2C3C=CC(C3)C2C1=O)Nc1nncs1 (stereo not shown)	2.09
C[C@H](OC(=O)n1ccnc1)[C@@H]1O[C@@]2(C)CCC[C@@H]1O2	6.42
Cc1nn(-c2cccc(C(F)(F)F)c2)c(Cl)c1/C=N/n1cnnc1	-24.8
O=C(COC(=O)c1cccnc1)Nc1ccc2c(c1)OCO2	21.1
NS(=O)(=O)c1ccc(NC(=O)Nc2cccc3ccccc23)cc1	17.9
CC(C)(C)c1ccc(C(=O)N2CCC(C(=O)NCc3ccncc3)CC2)cc1	-9.85
CCCCCC(=O)Nc1ccc(-c2cn3cccnc3n2)cc1	16.4
CCOC(=O)N/N=C(/C)c1cccc(-n2cnnn2)c1	27.9
CCC1Nc2ncnc(N3CCN(c4ccccn4)CC3)c2N(Cc2ccc(Cl)cc2)C1=O.O=C(O)C(F)(F)F (stereo not shown)	-73.8
Cc1cc(C)cc(C(=O)N2CCN(Cc3ccc4c(c3)OCO4)CC2)c1	-20.1
CC(C)c1nc(Cl)c(C#N)c2c1CCCC2	13.6
Cc1cc(N(C)C)nc(SC(C)C)n1	14.5
O=C(CNc1ccccc1)Nc1cccc2ccccc12	3.23
N=c1c2c(n(Cc3ccc(F)cc3)c3c1CCC3)CCC2	-20.7

SMILES	hERG current change (%, negative = inhibition) at 10uM [%]
O=C(NCc1cccs1)C(=O)NCC1OCCCN1S(=O)(=O)c1ccc(F)cc1 (stereo not shown)	-13.4
Nc1ccc(S(=O)(=O)N2CCC(Cc3ccccc3)CC2)cc1	13
Cc1ccc(NC(=O)CCN2C(=O)NC3(CCCC3)C2=O)c(C)c1	2.74
COc1ccc(-c2sc3ccc(OC)cc3c2C#Cc2ccccn2)cc1	13.5
COc1ccc(NC(=O)c2cc(-c3ccccc3)nc3c2cnn3C(C)C)cc1	7.77
O=C1CSC(c2cccnc2)N1c1cccc(Cl)c1 (stereo not shown)	-1.13
O=C(Nn1c(-c2ccc(F)cc2)nc2ccccc2c1=O)C1CCCCC1	-1.29
O=C1C(Cl)=C(Nc2ccccc2O)C(=O)N1CCc1ccccc1	32.8
CCOc1ccc2c(c1)c1nnc(SCC(=O)N3CCCCC3C)nc1n2C (stereo not shown)	-33.6
CSCCC(NC(=O)C1CCC(C)CC1)C(=O)NCCN1CCOCC1 (stereo not shown)	15.3
CC(C)n1nc(C(=O)Nc2nc3ccc(S(C)(=O)=O)cc3s2)c2ccccc2c1=O	3.79
COc1ccc(C(=O)Nc2ccc(C)cn2)cc1S(=O)(=O)N1CCCc2ccccc21	1.6
O=C(CN1CCN(c2ccc(F)cc2)CC1)OCc1ccccc1	-41.7
COc1cc(C(=O)NCc2nnc(SCC(=O)N3CCCCC3)o2)cc(OC)c1OC	7.47
CCOC(=O)Cc1nc2cc(Cl)ccc2o1	10.7
C=CCOc1c(Cl)cc(CNc2ccc3[nH]c(=O)[nH]c3c2)cc1OC	-22.9
CCOc1ccccc1N=C1NC(=O)CS1	-7.25
CCC(=O)Nc1cccc(NC(=O)CSc2nnnn2C)c1	-44.1
Cc1cccc(N2CCN(C(=O)c3c(-c4ccccc4Cl)noc3C)CC2)c1C	10.5
CSc1c(C#N)c(N)c(C#N)c2c1COC(C)(C)C2	-9.21
O=C(CSc1nnc(-c2ccncc2)o1)c1cccc([N+](=O)[O-])c1	-4.67
CCCOc1ccc(-c2nnc(N)s2)cc1	6.87

SMILES	hERG current change (%, negative = inhibition) at 10uM [%]
O=C(Cc1ccc(-c2ccccc2)cc1)NCCN1CCOCC1	0.566
CCOc1cc(NC(=S)NC)c(OCC)cc1NC(=O)c1cccs1	-1.16
CCOC(=O)c1sc(-c2ccc(OC)cc2)cc1N	-3.55
Cc1ccc(-c2nnc(C)c(N3CCOCC3)n2)cc1	-19
Cc1ccc(NC(=O)C2CCN(S(=O)(=O)c3ccc4c(c3)NC(=O)CO4)CC2)cc1C	-20.4
COc1ccc(OC)c(C2=NOC(C(=O)Nc3c(C)n(C)n(-c4ccccc4)c3=O)C2)c1 (stereo not shown)	21.4
COc1ccc(-c2nc(CSCC(=O)NCCC3=CCCCC3)c(C)o2)cc1OC	-14.2
C/C(=C\c1ccc2c(c1)OCO2)C1Nc2cccc3cccc(c23)N1	16.8
O=C1C(Cc2ccccc2)NC(=S)N1Cc1ccccc1 (stereo not shown)	13.5
O=C(COC(=O)c1ccc(F)cc1)NC1CC1	7.11
Cc1cc(NC(=O)c2cc(-c3ccco3)on2)no1	-6.18
COc1ccccc1NS(=O)(=O)c1ccc(N/N=C/c2c(C)nn(-c3ccccc3)c2N2CCCC2)c([N+](=O)[O-])c1	6.11
Cc1ccc(NC(=O)c2cccc(F)c2)cc1S(=O)(=O)N1CCCCCC1	12
C[C@@H]1CC=C[C@H]2[C@H]1C(=O)N(Cc1ccccc1)[C@H]2c1ccc(C(F)(F)F)cc1	10.4
COC(=O)[C@@H]1CC[C@H](C)[C@@H](c2ccc(C)cc2)N1C(=O)c1ccc(/C=N/OCC[C@@H]2C=C[C@H](OC(C)=O)[C@@H](COC(C)=O)O2)cc1	-16.6
COc1ccc(NC(=O)C2CCCN(C(=O)c3ccc(Cl)cc3)C2)cc1S(=O)(=O)N(C)C (stereo not shown)	-23.9
COc1ccc(C(=O)C2CCCN(C(=O)c3csc(C(C)=O)c3)C2)c(C)c1 (stereo not shown)	-1.6
Cc1ccc(-c2noc(CCC(=O)NCCc3ccccc3Cl)n2)cc1	11.7
COc1ccc(S(=O)(=O)n2cccc2)cc1	16
O=C(O)c1ccc(Cl)c(S(=O)(=O)NC(Cc2c[nH]c3ccccc23)C(=O)O)c1 (stereo not shown)	0.925
CN(C(=O)COC(=O)c1ccc(CN2CCCC2=O)cc1)c1ccccc1	-30.9
Cc1cc(F)ccc1NC(=O)C(C)n1c2ccccc2c2nc(=O)cc(C)n21 (stereo not shown)	5.58

SMILES	hERG current change (%, negative = inhibition) at 10uM [%]
CC(C)(C)C1CCC(=NNC(=O)c2cc(-c3ccccc3)n[nH]2)CC1 (stereo not shown)	7.95
CCCCN1C(=O)NC(NC(=O)c2ccco2)(C(F)(F)F)C1=O (stereo not shown)	5.12
COc1ccc(NC(=O)CS(=O)(=O)Cc2nc(-c3ccc(C)cc3)oc2C)cc1	4.32
CC(=O)c1cc2c(ccc3ccccc32)oc1=O	19.7
COC(=O)C1=C(C)N=C2SC(C)C(=O)N2C1/C=C/c1ccccc1 (stereo not shown)	-17.8
CC(C)CC(=O)Nc1ccc(C(=O)COC(=O)C2CC(=O)N(Cc3ccccc3)C2)cc1 (stereo not shown)	10.7
COc1cc2c(cc1NC(=O)COC(=O)/C=C/c1ccccc1)oc1ccccc12	4.6
O=C(Nc1ccccc1Cl)Nc1ccccc1Cl	0.0288
S=C1SCN(Cc2ccco2)CN1Cc1ccco1	-6.73
C=CCNC(=O)c1cc(C(=O)C(C)c2ncc(C(F)(F)F)cc2Cl)c[nH]1 (stereo not shown)	0.972
O=C(Cc1ccccc1)NCC(=O)N1CCCC1	19.2
CN(C)n1cccc1/C=C(\C#N)S(=O)(=O)c1cccc(Cl)c1	12.9
COc1cccc(-n2cnc(=O)c3cccnc32)c1	12.2
CCOc1ccc(C(F)(F)F)cc1NC(=O)c1ccc(OC)c([N+](=O)[O-])c1	11
COc1ccc2oc3ccccc3c(=O)c2c1	11.9
Cc1ccc(NC(=O)COc2ccc3oc4c(c3c2)CCCC4)nc1	6.16
COc1ccc(-c2nc3ccccc3nc2-c2ccc(OC)cc2)cc1	12.2
CCOC(=O)c1ccc(NC(=O)CSc2nnc(CNC(=O)c3ccccc3F)o2)cc1	0.179
CCC(=O)N(C)CCc1cc2c(c(OC)c1/C=N/NC(=O)[C@H]1C[C@@H]1c1ccccc1)OCO2	-37.5
Cl.OC(C#CCN1CCOCC1)(c1ccccc1)C1CC1 (stereo not shown)	24.8
CC#CCN1c2ccccc2[C@]23C[C@@H](C(=O)OC)N(C(=O)NCCBr)C2=NC(C(=O)OC)=C(C(=O)OC)[C@H]13	2.93
COc1ccc(C(=O)/C=C/Nc2ccc(S(N)(=O)=O)cc2)cc1OC	9.88
